# Test results: the supplement of paper PMC12230231
# ± gives the standard deviation of the averaged measurements. Restriction of a single-cycle SIVsab GFP reporter by TRIM5α v1-loop variants in CRFK cells. Human variants: read share among cells still uninfected after two challenges over input, higher = gained restriction. Rhesus variants: share among infected cells over input, higher = lost restriction. Reporter dose not given per row. No active / inactive call per row; the paper calls a change when both replicates lie above its controls (mean + 2 SD of stop or wild-type variants, or the top frameshift score). Residues outside the varied loop are taken from Swiss-Prot. The paper reads the human single-substitution scores as noise; they and the rhesus combinations repeat poorly (rank correlation 0.3 to 0.4), indel scores repeat only for the top variants, rhesus substitutions well (0.9).
# System: SIVsab (simian immunodeficiency virus of sabaeus monkeys), single-cycle GFP reporter, in CRFK cells
# Test: enrichment among infected cells over input (fold); higher = weaker restriction
# Conditions: library: human / rhesus combinations
# Procedure: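 Pools of CRFK cells expressing variants of the TRIM5α v1 loop were challenged with the single-cycle reporter, sorted by GFP and sequenced; mean of two replicates.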
row,Sequence,enrichment
1,"MASGILLNVKEEVTCPICLELLTEPLSLHCGHSFCQACITANHKKSMLYKEGERSCPVCRISYQPENIQPNRHVANIVEKLREVKLSPEEGQKVDHCARHGEKLLLFCQEDSKVICWLCERSQEHRGHHTFLMEEVAQEYHVKLQTALEMLRQKQQEAEKLEADIREEKASWKIQIDYDKTNVSADFEQLREILDWEESNELQNLEKEEEDILKSLTKSETEMVQQTQYMRELISELEHRLQGSMMDLLQGVDGIIKRIENMTLKKPKTFHKNQRRVFRAPDLKGMLDMFRELTDARRYWVDVTLAPNNISHAVIAEDKRQVSSRNPQIMYGARGTRYTFPTFVNFNYCTGVLGSQSITSGKHYWEVDVSKKSAWILGVCAGFQSDAMYNIEQNENYQPKYGYWVIGLQEGVKYSVFQDGSSHTPFAPFIVPLSVIICPDRVGVFVDYEACTVSFFNITNHGFLIYKFSQCSFSKPVFPYLNPRKCTVPMTLCSPSS [rhesus TRIM5α, 332-344 = GARGTRYTFPTFV]",1.01 ± 0.18
2,"MASGILLNVKEEVTCPICLELLTEPLSLHCGHSFCQACITANHKKSMLYKEGERSCPVCRISYQPENIQPNRHVANIVEKLREVKLSPEEGQKVDHCARHGEKLLLFCQEDSKVICWLCERSQEHRGHHTFLMEEVAQEYHVKLQTALEMLRQKQQEAEKLEADIREEKASWKIQIDYDKTNVSADFEQLREILDWEESNELQNLEKEEEDILKSLTKSETEMVQQTQYMRELISELEHRLQGSMMDLLQGVDGIIKRIENMTLKKPKTFHKNQRRVFRAPDLKGMLDMFRELTDARRYWVDVTLAPNNISHAVIAEDKRQVSSRNPQIMYQARGTRFTFQTFTNFNYCTGVLGSQSITSGKHYWEVDVSKKSAWILGVCAGFQSDAMYNIEQNENYQPKYGYWVIGLQEGVKYSVFQDGSSHTPFAPFIVPLSVIICPDRVGVFVDYEACTVSFFNITNHGFLIYKFSQCSFSKPVFPYLNPRKCTVPMTLCSPSS [rhesus TRIM5α, 332-344 = QARGTRFTFQTFT]",0.896 ± 0.58
3,"MASGILLNVKEEVTCPICLELLTEPLSLHCGHSFCQACITANHKKSMLYKEGERSCPVCRISYQPENIQPNRHVANIVEKLREVKLSPEEGQKVDHCARHGEKLLLFCQEDSKVICWLCERSQEHRGHHTFLMEEVAQEYHVKLQTALEMLRQKQQEAEKLEADIREEKASWKIQIDYDKTNVSADFEQLREILDWEESNELQNLEKEEEDILKSLTKSETEMVQQTQYMRELISELEHRLQGSMMDLLQGVDGIIKRIENMTLKKPKTFHKNQRRVFRAPDLKGMLDMFRELTDARRYWVDVTLAPNNISHAVIAEDKRQVSSRNPQIMYQARGTLYTFQSFTNFNYCTGVLGSQSITSGKHYWEVDVSKKSAWILGVCAGFQSDAMYNIEQNENYQPKYGYWVIGLQEGVKYSVFQDGSSHTPFAPFIVPLSVIICPDRVGVFVDYEACTVSFFNITNHGFLIYKFSQCSFSKPVFPYLNPRKCTVPMTLCSPSS [rhesus TRIM5α, 332-344 = QARGTLYTFQSFT]",2 ± 0.64
4,"MASGILLNVKEEVTCPICLELLTEPLSLHCGHSFCQACITANHKKSMLYKEGERSCPVCRISYQPENIQPNRHVANIVEKLREVKLSPEEGQKVDHCARHGEKLLLFCQEDSKVICWLCERSQEHRGHHTFLMEEVAQEYHVKLQTALEMLRQKQQEAEKLEADIREEKASWKIQIDYDKTNVSADFEQLREILDWEESNELQNLEKEEEDILKSLTKSETEMVQQTQYMRELISELEHRLQGSMMDLLQGVDGIIKRIENMTLKKPKTFHKNQRRVFRAPDLKGMLDMFRELTDARRYWVDVTLAPNNISHAVIAEDKRQVSSRNPQIMYGARGTRFTFPTFVNFNYCTGVLGSQSITSGKHYWEVDVSKKSAWILGVCAGFQSDAMYNIEQNENYQPKYGYWVIGLQEGVKYSVFQDGSSHTPFAPFIVPLSVIICPDRVGVFVDYEACTVSFFNITNHGFLIYKFSQCSFSKPVFPYLNPRKCTVPMTLCSPSS [rhesus TRIM5α, 332-344 = GARGTRFTFPTFV]",1.8 ± 0.11
5,"MASGILLNVKEEVTCPICLELLTEPLSLHCGHSFCQACITANHKKSMLYKEGERSCPVCRISYQPENIQPNRHVANIVEKLREVKLSPEEGQKVDHCARHGEKLLLFCQEDSKVICWLCERSQEHRGHHTFLMEEVAQEYHVKLQTALEMLRQKQQEAEKLEADIREEKASWKIQIDYDKTNVSADFEQLREILDWEESNELQNLEKEEEDILKSLTKSETEMVQQTQYMRELISELEHRLQGSMMDLLQGVDGIIKRIENMTLKKPKTFHKNQRRVFRAPDLKGMLDMFRELTDARRYWVDVTLAPNNISHAVIAEDKRQVSSRNPQIMYQARGTLFTFPTLVNFNYCTGVLGSQSITSGKHYWEVDVSKKSAWILGVCAGFQSDAMYNIEQNENYQPKYGYWVIGLQEGVKYSVFQDGSSHTPFAPFIVPLSVIICPDRVGVFVDYEACTVSFFNITNHGFLIYKFSQCSFSKPVFPYLNPRKCTVPMTLCSPSS [rhesus TRIM5α, 332-344 = QARGTLFTFPTLV]",0.647 ± 0.54
6,"MASGILLNVKEEVTCPICLELLTEPLSLHCGHSFCQACITANHKKSMLYKEGERSCPVCRISYQPENIQPNRHVANIVEKLREVKLSPEEGQKVDHCARHGEKLLLFCQEDSKVICWLCERSQEHRGHHTFLMEEVAQEYHVKLQTALEMLRQKQQEAEKLEADIREEKASWKIQIDYDKTNVSADFEQLREILDWEESNELQNLEKEEEDILKSLTKSETEMVQQTQYMRELISELEHRLQGSMMDLLQGVDGIIKRIENMTLKKPKTFHKNQRRVFRAPDLKGMLDMFRELTDARRYWVDVTLAPNNISHAVIAEDKRQVSSRNPQIMYGARGTRYTFQTFVNFNYCTGVLGSQSITSGKHYWEVDVSKKSAWILGVCAGFQSDAMYNIEQNENYQPKYGYWVIGLQEGVKYSVFQDGSSHTPFAPFIVPLSVIICPDRVGVFVDYEACTVSFFNITNHGFLIYKFSQCSFSKPVFPYLNPRKCTVPMTLCSPSS [rhesus TRIM5α, 332-344 = GARGTRYTFQTFV]",1.26 ± 0.41
7,"MASGILLNVKEEVTCPICLELLTEPLSLHCGHSFCQACITANHKKSMLYKEGERSCPVCRISYQPENIQPNRHVANIVEKLREVKLSPEEGQKVDHCARHGEKLLLFCQEDSKVICWLCERSQEHRGHHTFLMEEVAQEYHVKLQTALEMLRQKQQEAEKLEADIREEKASWKIQIDYDKTNVSADFEQLREILDWEESNELQNLEKEEEDILKSLTKSETEMVQQTQYMRELISELEHRLQGSMMDLLQGVDGIIKRIENMTLKKPKTFHKNQRRVFRAPDLKGMLDMFRELTDARRYWVDVTLAPNNISHAVIAEDKRQVSSRNPQIMYGARGTRFTFPTFTNFNYCTGVLGSQSITSGKHYWEVDVSKKSAWILGVCAGFQSDAMYNIEQNENYQPKYGYWVIGLQEGVKYSVFQDGSSHTPFAPFIVPLSVIICPDRVGVFVDYEACTVSFFNITNHGFLIYKFSQCSFSKPVFPYLNPRKCTVPMTLCSPSS [rhesus TRIM5α, 332-344 = GARGTRFTFPTFT]",1.5 ± 0.69
8,"MASGILLNVKEEVTCPICLELLTEPLSLHCGHSFCQACITANHKKSMLYKEGERSCPVCRISYQPENIQPNRHVANIVEKLREVKLSPEEGQKVDHCARHGEKLLLFCQEDSKVICWLCERSQEHRGHHTFLMEEVAQEYHVKLQTALEMLRQKQQEAEKLEADIREEKASWKIQIDYDKTNVSADFEQLREILDWEESNELQNLEKEEEDILKSLTKSETEMVQQTQYMRELISELEHRLQGSMMDLLQGVDGIIKRIENMTLKKPKTFHKNQRRVFRAPDLKGMLDMFRELTDARRYWVDVTLAPNNISHAVIAEDKRQVSSRNPQIMYQARGTLYTFPTLVNFNYCTGVLGSQSITSGKHYWEVDVSKKSAWILGVCAGFQSDAMYNIEQNENYQPKYGYWVIGLQEGVKYSVFQDGSSHTPFAPFIVPLSVIICPDRVGVFVDYEACTVSFFNITNHGFLIYKFSQCSFSKPVFPYLNPRKCTVPMTLCSPSS [rhesus TRIM5α, 332-344 = QARGTLYTFPTLV]",1.23 ± 0.73
9,"MASGILLNVKEEVTCPICLELLTEPLSLHCGHSFCQACITANHKKSMLYKEGERSCPVCRISYQPENIQPNRHVANIVEKLREVKLSPEEGQKVDHCARHGEKLLLFCQEDSKVICWLCERSQEHRGHHTFLMEEVAQEYHVKLQTALEMLRQKQQEAEKLEADIREEKASWKIQIDYDKTNVSADFEQLREILDWEESNELQNLEKEEEDILKSLTKSETEMVQQTQYMRELISELEHRLQGSMMDLLQGVDGIIKRIENMTLKKPKTFHKNQRRVFRAPDLKGMLDMFRELTDARRYWVDVTLAPNNISHAVIAEDKRQVSSRNPQIMYQAPGTLYTFQTLTNFNYCTGVLGSQSITSGKHYWEVDVSKKSAWILGVCAGFQSDAMYNIEQNENYQPKYGYWVIGLQEGVKYSVFQDGSSHTPFAPFIVPLSVIICPDRVGVFVDYEACTVSFFNITNHGFLIYKFSQCSFSKPVFPYLNPRKCTVPMTLCSPSS [rhesus TRIM5α, 332-344 = QAPGTLYTFQTLT]",1.23 ± 0.91
10,"MASGILLNVKEEVTCPICLELLTEPLSLHCGHSFCQACITANHKKSMLYKEGERSCPVCRISYQPENIQPNRHVANIVEKLREVKLSPEEGQKVDHCARHGEKLLLFCQEDSKVICWLCERSQEHRGHHTFLMEEVAQEYHVKLQTALEMLRQKQQEAEKLEADIREEKASWKIQIDYDKTNVSADFEQLREILDWEESNELQNLEKEEEDILKSLTKSETEMVQQTQYMRELISELEHRLQGSMMDLLQGVDGIIKRIENMTLKKPKTFHKNQRRVFRAPDLKGMLDMFRELTDARRYWVDVTLAPNNISHAVIAEDKRQVSSRNPQIMYGAPGTRFTFPTFVNFNYCTGVLGSQSITSGKHYWEVDVSKKSAWILGVCAGFQSDAMYNIEQNENYQPKYGYWVIGLQEGVKYSVFQDGSSHTPFAPFIVPLSVIICPDRVGVFVDYEACTVSFFNITNHGFLIYKFSQCSFSKPVFPYLNPRKCTVPMTLCSPSS [rhesus TRIM5α, 332-344 = GAPGTRFTFPTFV]",1.14 ± 0.39
11,"MASGILLNVKEEVTCPICLELLTEPLSLHCGHSFCQACITANHKKSMLYKEGERSCPVCRISYQPENIQPNRHVANIVEKLREVKLSPEEGQKVDHCARHGEKLLLFCQEDSKVICWLCERSQEHRGHHTFLMEEVAQEYHVKLQTALEMLRQKQQEAEKLEADIREEKASWKIQIDYDKTNVSADFEQLREILDWEESNELQNLEKEEEDILKSLTKSETEMVQQTQYMRELISELEHRLQGSMMDLLQGVDGIIKRIENMTLKKPKTFHKNQRRVFRAPDLKGMLDMFRELTDARRYWVDVTLAPNNISHAVIAEDKRQVSSRNPQIMYQARGTLFTFQTFVNFNYCTGVLGSQSITSGKHYWEVDVSKKSAWILGVCAGFQSDAMYNIEQNENYQPKYGYWVIGLQEGVKYSVFQDGSSHTPFAPFIVPLSVIICPDRVGVFVDYEACTVSFFNITNHGFLIYKFSQCSFSKPVFPYLNPRKCTVPMTLCSPSS [rhesus TRIM5α, 332-344 = QARGTLFTFQTFV]",1.03 ± 0.39
12,"MASGILLNVKEEVTCPICLELLTEPLSLHCGHSFCQACITANHKKSMLYKEGERSCPVCRISYQPENIQPNRHVANIVEKLREVKLSPEEGQKVDHCARHGEKLLLFCQEDSKVICWLCERSQEHRGHHTFLMEEVAQEYHVKLQTALEMLRQKQQEAEKLEADIREEKASWKIQIDYDKTNVSADFEQLREILDWEESNELQNLEKEEEDILKSLTKSETEMVQQTQYMRELISELEHRLQGSMMDLLQGVDGIIKRIENMTLKKPKTFHKNQRRVFRAPDLKGMLDMFRELTDARRYWVDVTLAPNNISHAVIAEDKRQVSSRNPQIMYQARGTRYPSLTNFNYCTGVLGSQSITSGKHYWEVDVSKKSAWILGVCAGFQSDAMYNIEQNENYQPKYGYWVIGLQEGVKYSVFQDGSSHTPFAPFIVPLSVIICPDRVGVFVDYEACTVSFFNITNHGFLIYKFSQCSFSKPVFPYLNPRKCTVPMTLCSPSS [rhesus TRIM5α, 332-344 = QARGTRYPSLT]",0.29 ± 0.17
